The whole screen tested about 310,000 compounds, of which about 14,000 (4.5%) showed an effect of 50% or more. The effect is printed as a negative number. The list shows a part of the results.

Data on 55 compounds can be found in publication PMC4336329 (PLoS ONE, 2015).
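Note: peak tail current of the secondary pulse compared with the same well before compound.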

human ether-à-go-go-related gene (hERG) potassium channel, sequence (Q12809 whole entry, looked up): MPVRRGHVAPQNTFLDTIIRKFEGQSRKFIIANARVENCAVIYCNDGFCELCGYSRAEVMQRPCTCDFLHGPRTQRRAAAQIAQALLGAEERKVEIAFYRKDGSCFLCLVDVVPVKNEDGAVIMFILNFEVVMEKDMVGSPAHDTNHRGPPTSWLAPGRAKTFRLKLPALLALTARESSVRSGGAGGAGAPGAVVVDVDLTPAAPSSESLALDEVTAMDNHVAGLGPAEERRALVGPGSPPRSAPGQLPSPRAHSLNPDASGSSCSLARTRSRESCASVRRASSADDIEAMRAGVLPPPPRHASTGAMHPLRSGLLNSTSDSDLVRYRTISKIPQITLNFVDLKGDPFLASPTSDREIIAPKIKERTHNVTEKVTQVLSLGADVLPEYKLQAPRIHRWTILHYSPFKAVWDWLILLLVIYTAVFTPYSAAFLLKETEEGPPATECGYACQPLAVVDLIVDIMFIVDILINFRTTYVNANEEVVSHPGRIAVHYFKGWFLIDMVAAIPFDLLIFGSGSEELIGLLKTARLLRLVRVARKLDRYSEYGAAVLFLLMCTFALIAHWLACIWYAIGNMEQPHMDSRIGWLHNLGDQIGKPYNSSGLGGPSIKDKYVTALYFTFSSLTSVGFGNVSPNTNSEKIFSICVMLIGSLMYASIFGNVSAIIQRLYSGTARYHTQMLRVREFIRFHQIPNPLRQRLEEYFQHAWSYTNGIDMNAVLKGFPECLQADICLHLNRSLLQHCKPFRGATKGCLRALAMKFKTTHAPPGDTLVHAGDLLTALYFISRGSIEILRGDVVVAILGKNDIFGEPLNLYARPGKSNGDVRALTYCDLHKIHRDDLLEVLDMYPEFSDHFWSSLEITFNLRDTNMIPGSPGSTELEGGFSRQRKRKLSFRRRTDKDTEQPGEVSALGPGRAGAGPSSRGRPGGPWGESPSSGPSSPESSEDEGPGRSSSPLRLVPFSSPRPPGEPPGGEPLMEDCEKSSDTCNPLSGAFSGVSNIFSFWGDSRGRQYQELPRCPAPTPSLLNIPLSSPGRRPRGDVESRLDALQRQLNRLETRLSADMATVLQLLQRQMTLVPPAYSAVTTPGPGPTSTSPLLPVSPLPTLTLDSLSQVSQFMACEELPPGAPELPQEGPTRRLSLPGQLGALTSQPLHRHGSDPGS

This experiment has as its target human ether-à-go-go-related gene (hERG) potassium channel (human, UniProt Q12809). As to the kind of experiment: primary screen, population patch clamp on CHO cells stably expressing hERG.
Consider `Cc1ccc(Cl)cc1N1CCN(C(=O)CCS(=O)(=O)c2cccc3nonc23)CC1`, for which the “hERG current change (%, negative = inhibition) at 10uM” value is recorded as -21.5%.

In the case of `O=S1(=O)N(Cc2ccc(F)cc2)CCCN1Cc1ccccc1Cl`, the “hERG current change (%, negative = inhibition) at 10uM” value is 10.6%.

With `N#CC1=C(N)Oc2n[nH]c(-c3cccs3)c2C1c1ccsc1` (stereo not shown), the “hERG current change (%, negative = inhibition) at 10uM” value amounted to 11%.

For the compound `Cc1ccc2cc(CNC(C)C)c(=O)[nH]c2c1`, the “hERG current change (%, negative = inhibition) at 10uM” value is recorded as -9.38%.

As to `CCOc1ccc(NC(=O)C(C)Oc2ccccc2C(=O)Nc2cccc(Cl)c2Cl)cc1` (stereo not shown), the “hERG current change (%, negative = inhibition) at 10uM” value was 10.8%.

Consider `Br.O=c1cc2c(n[nH]1)CCCC2`, for which the “hERG current change (%, negative = inhibition) at 10uM” value is 3.1%.

`CCN(C(=O)[C@@H]1CCCN1C(=O)c1cccs1)c1nc2cc(Cl)ccc2s1`: the “hERG current change (%, negative = inhibition) at 10uM” value is -36%.

As for `CC(=O)Oc1ccc(C(=O)Nc2ccc(C3(C#N)CCCC3)cc2)cc1`, the “hERG current change (%, negative = inhibition) at 10uM” value stood at 24%.

For the compound `CCCC(=O)Nc1ccc(NC(=S)NC(=O)c2ccccc2[N+](=O)[O-])cc1`, the “hERG current change (%, negative = inhibition) at 10uM” value is given as 9%.

`COc1cc(C2C(C#N)=C(N)Oc3n[nH]c(-c4cccnc4)c32)cc(Br)c1O` (stereo not shown): the “hERG current change (%, negative = inhibition) at 10uM” value is 2.34%.

Consider `Cn1c(NC(=O)c2ccc3c(c2)OCO3)cc(=O)n(C)c1=O`, for which the “hERG current change (%, negative = inhibition) at 10uM” value stood at 11.2%.

As to `CN1CCN(Cc2c(O)ccc3c(=O)c(Oc4ccccc4Cl)c(C(F)(F)F)oc23)CC1`, the “hERG current change (%, negative = inhibition) at 10uM” value was -2.94%.

With `Cc1cc(C)cc(NC(=O)CN(c2ccc(F)cc2)S(C)(=O)=O)c1`, the “hERG current change (%, negative = inhibition) at 10uM” value is 16%.

With `COc1cc(S(=O)(=O)N2CCCCC2)ccc1NC(=O)c1ccc(F)cc1`, the “hERG current change (%, negative = inhibition) at 10uM” value is -17.6%.

Turning to `CC(OC(=O)c1cc(=O)[nH]c2ccccc12)C(=O)c1ccccc1` (stereo not shown), the “hERG current change (%, negative = inhibition) at 10uM” value is given as -13.9%.

Consider `CCC1(CC)NC(=O)N(CC(=O)NCc2ccc3c(c2)OCO3)C1=O`, for which the “hERG current change (%, negative = inhibition) at 10uM” value came out at 8.7%.

In the case of `Cc1ccc(C)c(CN2CCC(CNC(=O)Nc3ccc(C)c(C)c3)CC2)c1`, the “hERG current change (%, negative = inhibition) at 10uM” value was -74.3%.

With `CN(C)CC(O)COc1cc2ccccc2cc1C(=O)N1CCCCC1` (stereo not shown), the “hERG current change (%, negative = inhibition) at 10uM” value is recorded as -41.5%.

For the compound `CCc1cccc(C)c1NC(=O)COC(=O)CNC(=O)c1cccs1`, the “hERG current change (%, negative = inhibition) at 10uM” value amounted to 15.5%.

`COc1ccc(CCCc2nnc(SCc3nc4ccccc4c(=O)[nH]3)n2C)c(C)c1`: the “hERG current change (%, negative = inhibition) at 10uM” value is on record as -22.3%.

As for `O=C(c1cc(Cl)ccc1Cl)N1CCOCC1`, the “hERG current change (%, negative = inhibition) at 10uM” value is listed as 8%.

As to `COC(CNC(=O)C1CCCN(S(=O)(=O)c2ccc3c(c2)oc(=O)n3C)C1)OC` (stereo not shown), the “hERG current change (%, negative = inhibition) at 10uM” value is reported as 17.1%.

With `Cc1c(NS(=O)(=O)c2ccccc2)c(=O)n(-c2ccccc2)n1C`, the “hERG current change (%, negative = inhibition) at 10uM” value is recorded as 13.1%.

As for `COc1ccc(CNC(=O)CN(c2ccc(C(C)C)cc2)S(=O)(=O)c2c(C)noc2C)cc1`, the “hERG current change (%, negative = inhibition) at 10uM” value came out at 7.55%.

For `Fc1ccc(NC(=S)NCc2ccccc2)cc1`, the “hERG current change (%, negative = inhibition) at 10uM” value is on record as 0.833%.

Turning to `CCn1cc(/C=N/N=C2\CCC3C4CCc5cc(O)ccc5C4CC[C@]23C)c(C)n1` (stereo partly shown), the “hERG current change (%, negative = inhibition) at 10uM” value is -0.991%.

As to `O=C(O)c1ccc(Nc2nc(-c3ccc([N+](=O)[O-])cc3)nc3ccccc23)cc1`, the “hERG current change (%, negative = inhibition) at 10uM” value came out at 19%.

Consider `O=C(COC(=O)CSc1ccc([N+](=O)[O-])cc1)NCCC1=CCCCC1`, for which the “hERG current change (%, negative = inhibition) at 10uM” value stood at 10.1%.

Consider `Cn1nc([N+](=O)[O-])nc1Oc1ccccc1N`, for which the “hERG current change (%, negative = inhibition) at 10uM” value worked out at 13.8%.

Regarding `COc1cccc2sc(N(CCCN(C)C)C(=O)COc3ccc(Cl)cc3)nc12.Cl`, the “hERG current change (%, negative = inhibition) at 10uM” value is -80.2%.

For the compound `Cc1ccccc1N1CCN(C(=S)c2ccc(-c3cccc([N+](=O)[O-])c3)o2)CC1`, the “hERG current change (%, negative = inhibition) at 10uM” value is listed as -5.58%.

`CCc1noc(C)c1C(=O)N1CCN(S(=O)(=O)c2c(C)c(C)cc(C)c2C)CC1`: the “hERG current change (%, negative = inhibition) at 10uM” value is recorded as -6.05%.

As for `COc1cc(OC)c(C(=O)Nc2cccc3ccccc23)cc1OC`, the “hERG current change (%, negative = inhibition) at 10uM” value stood at 15.5%.

For the compound `O=c1c2ccccc2nc2n1C(CSc1ccc(Br)cc1)CN2` (stereo not shown), the “hERG current change (%, negative = inhibition) at 10uM” value is given as -13%.

For `Fc1ccc(-n2nnc(-c3ccccc3Br)n2)cc1`, the “hERG current change (%, negative = inhibition) at 10uM” value amounted to 0.141%.

In the case of `Cl.NCCc1ccc(OCc2ccccc2)c(OCc2ccccc2)c1`, the “hERG current change (%, negative = inhibition) at 10uM” value is given as -22.1%.

As to `Cc1cc(-c2ccccc2)c(C#N)c(SCC(N)=O)n1`, the “hERG current change (%, negative = inhibition) at 10uM” value is recorded as -3.47%.

For the compound `CCOC(=O)c1ccc(NC(=O)C2CC3CCC2C3)cc1` (stereo not shown), the “hERG current change (%, negative = inhibition) at 10uM” value is on record as -15%.

`COCc1ccc(C(=O)N2CCCCC2C(=O)Nc2ccc(-n3nc(C)cc3C)cc2)o1` (stereo not shown): the “hERG current change (%, negative = inhibition) at 10uM” value was 2.1%.

On to `Cn1c(N)c(C(=O)COC(=O)/C=C/c2ccc(OC(F)F)cc2)c(=O)n(C)c1=O`, for which the “hERG current change (%, negative = inhibition) at 10uM” value turned out to be 3.23%.

Consider `Cc1csc2ncc(C(=O)Nc3ccc4c(c3)OCCO4)c(=O)n12`, for which the “hERG current change (%, negative = inhibition) at 10uM” value stood at 12.6%.

For `O=C(c1ccco1)N1CCN(c2ccc(F)cc2)CC1`, the “hERG current change (%, negative = inhibition) at 10uM” value was -0.235%.

`O=C(COC(=O)c1ccc(Cl)nc1)Nc1cccc(S(=O)(=O)N2CCCCC2)c1`: the “hERG current change (%, negative = inhibition) at 10uM” value is -34.6%.

On to `CN(C(=O)COC(=O)c1ccc(=O)n(Cc2ccccc2)n1)C1CCS(=O)(=O)C1` (stereo not shown), for which the “hERG current change (%, negative = inhibition) at 10uM” value was -3.87%.

Regarding `CCOc1cc(S(=O)(=O)NC2CCCCCC2)ccc1F`, the “hERG current change (%, negative = inhibition) at 10uM” value is reported as -8.88%.

Take `Cc1[nH]c(=O)[nH]c(=O)c1S(=O)(=O)N(C)Cc1ccccc1`: the “hERG current change (%, negative = inhibition) at 10uM” value was -4.02%.

Take `CCC/C(O)=C1\C(=O)CC(c2ccccc2)CC1=NCCc1c(C)[nH]c2ccc(C)cc12` (stereo not shown): the “hERG current change (%, negative = inhibition) at 10uM” value is -0.0297%.

As for `COc1ccc(CCn2c(O)c(C=NCCCN(C)C)c(=O)[nH]c2=O)cc1OC`, the “hERG current change (%, negative = inhibition) at 10uM” value is listed as -7.51%.

For `O=C(CSc1nc2ccccc2o1)Nc1ccc(Cl)cc1`, the “hERG current change (%, negative = inhibition) at 10uM” value is on record as -15%.

Consider `COc1ccccc1C(=O)Nc1ccc(C(=O)/C=C/c2cccs2)cc1`, for which the “hERG current change (%, negative = inhibition) at 10uM” value is on record as 16%.

For the compound `Cn1c(=O)[nH]c(=O)c2c1nc(N1CCOCC1)n2CCSc1nnnn1-c1ccccc1`, the “hERG current change (%, negative = inhibition) at 10uM” value is -21.1%.

As to `Brc1ccc(/C=N/c2nc3ccccc3n2CCN2CCOCC2)cc1`, the “hERG current change (%, negative = inhibition) at 10uM” value was 1.64%.

Take `COc1cc(C=O)ccc1OCCOCCOc1ccc(Cl)cc1`: the “hERG current change (%, negative = inhibition) at 10uM” value was -37.6%.

As to `CC(C)n1c(NCc2nc3ccccc3n2C)nc2ccccc21`, the “hERG current change (%, negative = inhibition) at 10uM” value is recorded as -46.4%.

In the case of `CCOC(=O)CN1CC23C=CC(O2)C(C(=O)Nc2ccc(F)c(C)c2)C3C1=O` (stereo not shown), the “hERG current change (%, negative = inhibition) at 10uM” value was determined as 14.3%.
